# Results reported in publication PMC4242493.
# This is one part of the list. The list includes weakly bound sequences.
# Molecular target: MaxL homodimer (UniProt P61244)
# Assay: universal protein-binding microarray (PBM)
# Details: PBS-based mixture, 10 nM His-tagged protein dimer, 2% milk, 200 ng/uL BSA, 50 ng/uL salmon testes DNA, 0.02% TX-100; detection with Alexa 488 anti-His …; high values mean tight binding; most listed sequences are background and not binding sites; double strand, one strand shown
# Chain of UniProt P61244 (P61244 whole entry): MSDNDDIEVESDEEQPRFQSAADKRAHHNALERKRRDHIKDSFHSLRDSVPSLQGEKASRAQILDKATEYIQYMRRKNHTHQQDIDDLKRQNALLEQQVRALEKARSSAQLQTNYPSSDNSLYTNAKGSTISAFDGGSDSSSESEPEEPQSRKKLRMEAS
row,Sequence,binding signal (normalized occupancy)
1,AAGGTGTC,0.0775
2,ATCCGCTC,0.071
3,AATAGGGG,0.0818
4,CCGGGGGA,0.0691
5,AGAACAGC,0.0777
6,ATGATGGG,0.0867
7,GTATTCCA,0.0796
8,ATGACCAG,0.0794
9,CCCGATAA,0.0745
10,AACCTCAA,0.0765
11,ATAGGCTC,0.078
12,GATGAGGA,0.0774
13,CGAATATA,0.0813
14,ACCGGACA,0.0727
15,ACAGAGTC,0.0714
16,GAAGCCCC,0.0705
17,AACCCCTA,0.0777
18,TCCGGAAA,0.0699
19,CGACAGAA,0.0718
20,ATTTCATG,0.0821
21,CTTTGGGC,0.0716
22,TGAGTAAA,0.0765
23,CTACAGAC,0.0772
24,CTCTTCTC,0.073

row,Sequence,binding signal (normalized occupancy)
1,AAGATGAA,0.0768
2,ACAGGGCC,0.0673
3,GCATCGAA,0.075
4,GATTACTA,0.0818
5,CCGTCCAC,0.0751
6,AGAGAGAG,0.075
7,CGGATCCG,0.0639
8,GGATTGCC,0.0701
9,GTACTGTA,0.0787
10,AAATCCGC,0.0712
11,CACCTCTC,0.0733
12,CAAGAACC,0.076
13,ACTGTGTG,0.0821
14,CCAGAGGA,0.0737
15,AGTACCTA,0.0751
16,CAAGATGC,0.0794
17,ACAAGGTG,0.0843
18,AAGACACT,0.075
19,AAGTGTGC,0.0869
20,GGTGAGCA,0.0759
21,CTCATGGA,0.0927
22,GCCCTGAC,0.0756
23,GGAGCTTA,0.0698
24,ATTCCAAT,0.0727

row,Sequence,binding signal (normalized occupancy)
1,ACTGCTGA,0.0731
2,ACGAGGCC,0.075
3,AGTAAAGC,0.072
4,GCTCGGGA,0.0672
5,CATACGAA,0.0771
6,CAGGGGCC,0.0688
7,CCTTACAC,0.0778
8,ACGCATCA,0.0829
9,AAACAGAT,0.0748
10,AGAAGGAG,0.0786
11,AAAGTGTT,0.0727
12,GCCTGACC,0.0702
13,GATAAGGA,0.0769
14,CCGCTAAC,0.0673
15,ACTCTCGG,0.0713
16,TCAACGCA,0.0747
17,TAAGTGGA,0.0727
18,CATGATAA,0.0909
19,GTATTCAC,0.0768
20,AACGGTGT,0.0796
21,ATGCCAGC,0.0726
22,CAGCGCTC,0.0684
23,CGCGTTTA,0.081
24,ACTATATG,0.0828

row,Sequence,binding signal (normalized occupancy)
1,ATTACTCC,0.0749
2,AGTGGGAC,0.077
3,CAATTATC,0.0791
4,CAGGCCCG,0.0665
5,AAGTTAAA,0.0718
6,CTCAGTTC,0.0707
7,CACTAGAC,0.077
8,GAGTCGGA,0.0696
9,ACCATATG,0.118
10,GTTATGCA,0.0792
11,ACCAAAGT,0.0662
12,ATACATAA,0.0869
13,CGGTTGTC,0.0727
14,CAGGCAGC,0.0731
15,AACTTGAA,0.0719
16,CCCAGGAG,0.0669
17,ACATTGGA,0.0847
18,ACTTTTGG,0.0711
19,AGCCTTTC,0.0701
20,CTTAGAGA,0.0697
21,CTGGCCTA,0.0713
22,CGCTGACA,0.0773
